In PubChem BioAssay AID485294 (National Center for Advancing Translational Sciences (NCATS), 2010):
Hit rate of the full screen: of about 370,000 compounds, about 150 (0.041%) were called active. Inconclusive means that the source gave no clear call. Such entries were picked first, then a sample of the others. The call rests on the fitted dose curve; in most records, active means well fitted inhibition curve with a large enough effect; inconclusive means small, poorly fitted or top-dose-only effect; inactive means flat fitted curve, though single readings scatter. No potency is given beside an inconclusive call; the fits are too rough.
Further: nearly all actives have a fitted effect of over 25% in size.
Potency means the concentration at half of the fitted maximal effect; tags describe the fitted curve by direction and shape.
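Wherever activity change, negative = inhibition is given: 0% = no-compound wells and -100% = no-enzyme wells.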

What follows are compounds tested against Beta-lactamase (Escherichia coli (strain K12)) (UniProt P00811) (assay: qHTS Inhibitors of AmpC Beta-Lactamase (assay with detergent)). Conditions: AmpC hydrolysis of nitrocefin, absorbance 480 nm, 0.01% Triton; activity change, negative = inhibition: at 114 µM (top of the series).
Sequence of UniProt P00811 (P00811 whole entry, looked up): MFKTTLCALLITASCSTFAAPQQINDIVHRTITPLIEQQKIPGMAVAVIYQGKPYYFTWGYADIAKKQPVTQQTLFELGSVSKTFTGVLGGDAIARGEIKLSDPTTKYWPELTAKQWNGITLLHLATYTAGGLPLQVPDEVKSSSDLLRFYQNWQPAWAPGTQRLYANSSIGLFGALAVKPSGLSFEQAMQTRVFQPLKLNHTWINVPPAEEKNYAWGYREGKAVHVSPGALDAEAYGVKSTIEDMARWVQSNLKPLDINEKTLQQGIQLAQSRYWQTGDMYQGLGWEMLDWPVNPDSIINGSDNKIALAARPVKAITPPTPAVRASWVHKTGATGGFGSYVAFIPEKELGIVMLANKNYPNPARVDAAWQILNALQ
In short: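 AmpC (5.3 nM in the dispensed reagent) in 20 mM phosphate pH 7.0 with 0.01% (detergent screen) or 0.0001% Triton X-100 was preincubated with compounds for 15 min at room temperature. Nitrocefin was then added from an 800 uM solution, and hydrolysis was followed at 480 nm.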
`CCOc1ccc(S(=O)(=O)NCCC(=O)Nc2ccncc2)cc1` was tested, and the Potency was inconclusive [inhibitor, full curve, poor fit]. `CN(C)S(=O)(=O)c1ccc(C(=O)NCCSc2ccccc2)cc1` was tested, and the “activity change, negative = inhibition” value was inactive: 2.52%. In the case of `CNC(=O)C(=O)Nc1cc2c3c(c1)CCN3C(=O)CC2`, the Potency is reported as inconclusive [inhibitor, full curve]. With `CN(C)c1ccc(NC(=O)CCN2C(=O)c3cccc([N+](=O)[O-])c3C2=O)cc1` the Potency was inconclusive [inhibitor, partial curve, poor fit]. With `O=C(c1ccc2c(c1)N(Cc1ccc(Cl)cc1)C(=O)c1ccccc1S2=O)N1CCN(c2ccccc2F)CC1` (stereo not drawn) the Potency was inconclusive [inhibitor, single point]. In the case of `Cc1ccc(NC(=O)c2cccs2)cc1NC(=O)c1ccc(F)cc1`, the Potency is reported as inconclusive [inhibitor, partial curve, poor fit]. In the case of `Cc1cc(OCC(=O)OCC(=O)N(C)C2CCS(=O)(=O)C2)ccc1Cl` (stereo not drawn), the Potency is reported as inconclusive [inhibitor, single point]. With `CCOC(=O)CNC(=O)CSc1nnc(Cn2c(=O)sc3ccccc32)n1C` the Potency was inconclusive [inhibitor, full curve, poor fit]. For `CC1CC(C)CN(c2nc(N(C)c3ccccc3)nc(N)c2[N+](=O)[O-])C1` (stereo not drawn), the “activity change, negative = inhibition” value was inactive: 6.35%. `Cc1ccc(CN2C(=O)C3CCCN3c3ccc(S(=O)(=O)N4CCOCC4)cc32)cc1` (stereo not drawn) was tested, and the Potency was inconclusive [inhibitor, single point]. `Cc1cccc(C)c1NC(=O)CNc1ncnc2sc(C)c(C)c12` was tested, and the “activity change, negative = inhibition” value was inactive: -13.3%. In the case of `CCOC(=O)Cn1c(=O)oc2cc(S(=O)(=O)N3CCN(c4ccccc4F)CC3)ccc21`, the “activity change, negative = inhibition” value is reported as inactive: -15%. In the case of `CC(=O)Oc1ccc2oc(-c3ccccc3)c(C(N)=O)c2c1`, the Potency is reported as inconclusive [inhibitor, full curve]. For `CCn1c(=NC(=O)CS(=O)(=O)c2ccc(F)cc2)sc2cccc(OC)c21`, the Potency was inconclusive [inhibitor, full curve, poor fit]. In the case of `COc1ccccc1Cn1c(CNS(=O)(=O)c2ccccc2Cl)nc2cccnc21`, the “activity change, negative = inhibition” value is reported as inactive: 1.72%. In the case of `COc1ccccc1CNC(=O)COC(=O)c1ccc2c(=O)n3c(nc2c1)CCCCC3`, the Potency is reported as inconclusive [inhibitor, full curve, poor fit]. With `COc1ccc(NC(=O)CSc2nnnn2-c2ccc(F)cc2)cc1` the Potency was inconclusive [inhibitor, single point]. For `CCOC(=O)Nc1ccc2c(CN3CCN(S(=O)(=O)c4ccc(C(C)C)cc4)CC3)cc(=O)oc2c1`, the Potency was inconclusive [inhibitor, full curve, poor fit]. `OCCCNCc1ccc(Cl)cc1Cl` was tested, and the “activity change, negative = inhibition” value was inactive: -2.77%. In the case of `CSCCC(NC(=O)CCC(=O)OCC(=O)[C@@]1(O)CCC2[C@@H]3CCC4=CC(=O)C=C[C@]4(C)C3[C@@H](O)C[C@@]21C)C(=O)O` (stereo partly drawn), the “activity change, negative = inhibition” value is reported as inactive: -10.2%. With `Cc1ccc(N(C(=O)CNC(=O)c2ccco2)C(C(=O)NCC2CCCO2)c2ccccc2)cc1` (stereo not drawn) the Potency was inconclusive [inhibitor, full curve, poor fit]. `CCCCN1C(=O)C(=O)N(CC(=O)c2ccc[nH]2)C1=O` was tested, and the Potency was inconclusive [inhibitor, full curve]. With `COc1ccc(-n2nc(C(=O)NCC(=O)N3CCN(c4ccc(F)cc4)CC3)c3ccccc3c2=O)c(OC)c1` the “activity change, negative = inhibition” value was inactive: -6.89%. `CC(C)N(Cc1nc(-c2ccccc2)no1)C(=O)Cc1ccccc1` was tested, and the Potency was inconclusive [inhibitor, full curve, poor fit]. With `CCOc1ccc2nc(Cl)c(C3CC(c4ccccc4)=NN3C(=O)c3ccco3)cc2c1` (stereo not drawn) the Potency was inconclusive [inhibitor, full curve, poor fit]. For `COc1ccc(-c2nn(-c3ccccc3)cc2CO)cc1OC`, the Potency was inconclusive [inhibitor, partial curve, poor fit]. In the case of `CCc1ccc(-c2nc(CSCC(=O)NC3CC3)c(C)o2)cc1`, the Potency is reported as inconclusive [inhibitor, partial curve]. In the case of `COc1ccccc1/C=C1/C(=O)N(c2ccc([N+](=O)[O-])cc2)N=C1C`, the Potency is reported as inconclusive [inhibitor, single point]. In the case of `O=C(c1n[nH]c2ccccc12)N1CCN(c2ccc(F)cc2)CC1`, the “activity change, negative = inhibition” value is reported as inactive: -19.2%. With `CCCN(CCC)S(=O)(=O)c1ccc(C)cc1` the Potency was inconclusive [inhibitor, full curve, poor fit]. `O=C(c1ccco1)N1CCCC(c2nc3c(nnn3Cc3ccc(Cl)cc3Cl)c(=O)[nH]2)C1` (stereo not drawn) was tested, and the Potency was inconclusive [inhibitor, full curve, poor fit]. For `Cc1ccc(Cn2c(=O)c3ccccc3n3c(SCC(=O)N4CCCCC4C)nnc23)cc1` (stereo not drawn), the Potency was inconclusive [inhibitor, full curve, poor fit]. In the case of `COc1ccccc1-c1nc(C#N)c(NCc2ccc(F)cc2)o1`, the Potency is reported as inconclusive [inhibitor, full curve, poor fit]. In the case of `COc1cc(NC(=S)Nc2cccc(Cl)c2Cl)c(OC)cc1Cl`, the “activity change, negative = inhibition” value is reported as inactive: 3.27%. For `Cc1sc(NC(=O)C2CCCCC2C(=O)O)c(C(N)=O)c1-c1ccc(C(C)C)cc1` (stereo not drawn), the Potency was inconclusive [inhibitor, partial curve, poor fit]. In the case of `COc1cc(Br)cc(CN2CCN(c3ncccn3)CC2)c1O`, the Potency is reported as inconclusive [inhibitor, partial curve, poor fit]. `N/C(=N\OC(=O)c1ccc(Cl)cc1)c1nonc1N` was tested, and the “activity change, negative = inhibition” value was inactive: 5.07%. For `CN(Cc1ccccc1)C(=O)c1[nH]cnc1C(=O)N[C@@H](Cc1ccccc1)C(=O)OC(C)(C)C`, the Potency was inconclusive [inhibitor, full curve, poor fit]. `Cc1ccccc1CSc1nnc(Cn2c(=O)sc3ccccc32)n1C` was tested, and the Potency was inconclusive [inhibitor, full curve, poor fit]. `COc1ccc(S(=O)(=O)N2CCCCCC2)cc1C(=O)NCCOc1ccc(C)cc1` was tested, and the Potency was inconclusive [inhibitor, full curve, poor fit]. `COC(=O)CSc1nc(N2CCOCC2)c2c(c1C#N)CC(C)(C)OC2` was tested, and the “activity change, negative = inhibition” value was inactive: 11.7%. In the case of `Cc1ccc(Nc2cnn(C34CC5CC(CC(CC(=O)O)(C5)C3)C4)c(=O)c2Cl)cc1C`, the Potency is reported as inconclusive [inhibitor, partial curve, poor fit]. In the case of `CCn1ncc(C2=NOC(C(=O)Nc3cnn(C45CC6CC(CC(C6)C4)C5)c3)C2)c1C` (stereo not drawn), the Potency is reported as inconclusive [inhibitor, partial curve]. In the case of `CNC(=O)c1cc(S(=O)(=O)Nc2ccc3c(c2)OCO3)ccc1C`, the Potency is reported as inconclusive [inhibitor, partial curve, poor fit]. For `N#CCCCSc1ncccc1-c1nc2ccccc2[nH]1`, the “activity change, negative = inhibition” value was inactive: -8.49%. In the case of `O=C(CSc1nc2ccc([N+](=O)[O-])cc2[nH]1)NC1CCCCC1`, the “activity change, negative = inhibition” value is reported as inactive: -0.906%. `COc1ccccc1OCC(O)CN1C(=O)NC(C)(C)C1=O` (stereo not drawn) was tested, and the Potency was inconclusive [inhibitor, full curve, poor fit]. For `CN(CC(=O)Nc1ccccc1Br)C(=O)c1cc(S(=O)(=O)N(C)C)ccc1N1CCCC1`, the Potency was inconclusive [inhibitor, partial curve, poor fit]. In the case of `CC(=O)Nc1ccc(NC(=O)C(C)Oc2ccccc2C(=O)NCc2ccccc2)cc1` (stereo not drawn), the Potency is reported as inconclusive [inhibitor, full curve, poor fit]. `CC1CC(C)CN(C(=O)Cn2ncc3c([nH]c4ccccc43)c2=O)C1` (stereo not drawn) was tested, and the Potency was inconclusive [inhibitor, full curve, poor fit]. In the case of `COc1c(C)cc(C(=O)C2CCCN(Cc3cnc(N4CCOCC4)s3)C2)cc1C` (stereo not drawn), the “activity change, negative = inhibition” value is reported as inactive: 0.218%. With `C(=N\n1cnnc1)/c1ccc(OC2CSC2)cc1` the Potency was inconclusive [inhibitor, partial curve]. For `CCOC(=O)Cn1c(CN(Cc2ccccc2)Cc2ccccc2)nc2c1c(=O)n(C)c(=O)n2C`, the Potency was inconclusive [inhibitor, partial curve, poor fit]. For `CCCN1C(=O)C2(C(C(=O)c3ccc(C)o3)=C(O)C(=O)N2CCCN2CCOCC2)c2ccccc21` (stereo not drawn), the Potency was inconclusive [inhibitor, single point]. In the case of `O=C(Nc1ccncc1)c1ccc2ncsc2c1`, the Potency is reported as inconclusive [inhibitor, partial curve, poor fit]. In the case of `CCc1nc(SCc2ccc(Cl)cc2)n[nH]1`, the Potency is reported as inconclusive [inhibitor, full curve]. With `Cn1cnc(S(=O)(=O)N2CCc3ccccc32)c1` the Potency was inconclusive [inhibitor, full curve, poor fit]. With `CCN(CC)c1ccc(C(=O)N2CCN(Cc3ccccc3)CC2)cc1` the Potency was inconclusive [inhibitor, full curve]. For `CC(C)Cc1cc(C(=O)Nc2sc3c(c2C#N)CCCC3)no1`, the Potency was inconclusive [inhibitor, full curve, poor fit]. For `O=C(CNC(=O)c1ccc2c(c1)S(=O)(=O)N=C1CCCCCN12)Nc1ccc(F)c(F)c1`, the “activity change, negative = inhibition” value was inactive: -10.8%. `O=C(CSc1nc2ccccc2o1)Nc1nncs1` was tested, and the Potency was inconclusive [inhibitor, single point]. With `CCCCCNC(=O)CSC1=N/C(=C\c2ccc(Cl)c(Cl)c2)C(=O)N1CC` the Potency was inconclusive [inhibitor, single point]. `N#Cc1sc2nc(-c3cccs3)cc(-c3ccc(Cl)cc3)c2c1N` was tested, and the Potency was inconclusive [inhibitor, partial curve].
